Results published in the antibiotic and cytotoxicity screens of Wong et al. (2023).
Some of the results follow.

Columns and labels:
[1] = system: HSkMC (human skeletal muscle cells); assay: cytotoxicity call (relative viability < 0.9); details: 10 µM
[2] = system: HepG2; assay: cytotoxicity call (relative viability < 0.9); details: 10 µM
[3] = system: S. aureus RN4220; assay: growth inhibition call (relative growth <= 0.2); details: 50 µM

**Q.** With `C[C@H]1CN([C@@H](C)CO)C(=O)c2cc(-c3ccncc3)cnc2O[C@@H]1CN(C)Cc1ccc(Oc2ccccc2)cc1` as the compound, how does the cytotoxicity call [1] read?
**A.** The cytotoxicity call was “inactive”.

**Q.** And the cytotoxicity call [2]?
**A.** The cytotoxicity call was “inactive”.

**Q.** And the growth inhibition call [3]?
**A.** The growth inhibition call was “inactive”.

**Q.** `O=C(C[C@@H]1CC[C@H]2[C@@H](COC[C@@H](O)CN2C(=O)c2ccccc2)O1)NCCCN1CCOCC1` was tested. Which cytotoxicity call [1] did it give?
**A.** Its cytotoxicity call is “inactive”.

**Q.** What about the cytotoxicity call [2] of the same compound?
**A.** Its cytotoxicity call is “inactive”.

**Q.** And the growth inhibition call [3]?
**A.** The growth inhibition call was “inactive”.

**Q.** How did the cytotoxicity call [1] turn out when `COc1ccc(CN(C)C[C@@H]2OCCCC[C@@H](C)Oc3ccc(NC(=O)Nc4ccc(C(F)(F)F)cc4)cc3C(=O)N([C@H](C)CO)C[C@@H]2C)cc1` was run?
**A.** The cytotoxicity call was “active”.

**Q.** And the cytotoxicity call [2]?
**A.** The cytotoxicity call was “active”.

**Q.** What about the growth inhibition call [3] of the same compound?
**A.** Its growth inhibition call is “inactive”.

**Q.** What does the source list for `C[C@@H]1CCCCO[C@@H](CN(C)CC2CCCCC2)[C@@H](C)CN([C@H](C)CO)C(=O)c2cc(NC(=O)CCCCCC(=O)Nc3ccccc3N)ccc2O1`?
**A.** cytotoxicity call [1]: inactive; cytotoxicity call [2]: inactive; growth inhibition call [3]: inactive

**Q.** `CN1CCN(C(=O)C[C@@H]2C=C[C@@H](NS(=O)(=O)c3cccc(F)c3)[C@H](CO)O2)CC1` was tested. Which cytotoxicity call [1] did it give?
**A.** Its cytotoxicity call is “inactive”.

**Q.** What about the cytotoxicity call [2] of the same compound?
**A.** The cytotoxicity call was “inactive”.

**Q.** What about the growth inhibition call [3] of the same compound?
**A.** Its growth inhibition call is “inactive”.

**Q.** Which cytotoxicity call [1] does the source give for `C[C@H](CO)N1C[C@H](C)[C@H](CN(C)C(=O)NC2CCCCC2)Oc2cc(-c3cccnc3)ccc2S1(=O)=O` here?
**A.** The cytotoxicity call was “inactive”.

**Q.** What about the cytotoxicity call [2] of the same compound?
**A.** Its cytotoxicity call is “inactive”.

**Q.** What about the growth inhibition call [3] of the same compound?
**A.** Its growth inhibition call is “inactive”.

**Q.** Which cytotoxicity call [1] does the source give for `C[C@@H]1CN([C@@H](C)CO)C(=O)c2cc(NC(=O)CCCCCC(=O)Nc3ccccc3N)ccc2O[C@@H]1CN(C)C(=O)Nc1ccc(F)cc1` here?
**A.** The cytotoxicity call was “inactive”.

**Q.** And the cytotoxicity call [2]?
**A.** The cytotoxicity call was “inactive”.

**Q.** What about the growth inhibition call [3] of the same compound?
**A.** The growth inhibition call was “inactive”.

**Q.** For `C=CCOC(=O)[C@@H]1[C@H]2C(=O)O[C@H](c3ccccc3)[C@H](c3ccccc3)N2[C@H](c2ccccc2OCCO)[C@@]12C(=O)Nc1ccc(I)cc12`, which cytotoxicity call [1] is on record?
**A.** The cytotoxicity call was “inactive”.

**Q.** What about the cytotoxicity call [2] of the same compound?
**A.** The cytotoxicity call was “inactive”.

**Q.** What about the growth inhibition call [3] of the same compound?
**A.** The growth inhibition call was “inactive”.

**Q.** What does the source list for `N[C@@H](Cc1c[nH]c2ccc(O)cc12)C(=O)O`?
**A.** cytotoxicity call [1]: inactive; cytotoxicity call [2]: inactive; growth inhibition call [3]: inactive

**Q.** With `C[C@@H]1CN([C@H](C)CO)C(=O)c2cccc(NC(=O)c3ccc(-c4nccs4)cc3)c2O[C@@H]1CN(C)Cc1ccc(C(=O)O)cc1` as the compound, how does the cytotoxicity call [1] read?
**A.** The cytotoxicity call was “inactive”.

**Q.** And the cytotoxicity call [2]?
**A.** The cytotoxicity call was “inactive”.

**Q.** And the growth inhibition call [3]?
**A.** Its growth inhibition call is “inactive”.

**Q.** With `CC(C)(O)C#Cc1cccc(-c2nc(C(=O)NCCCN3CCOCC3)cc3c2[C@@H](CCO)N(S(=O)C(C)(C)C)C3)c1` (stereo not given in full) as the compound, how does the cytotoxicity call [1] read?
**A.** Its cytotoxicity call is “inactive”.

**Q.** What about the cytotoxicity call [2] of the same compound?
**A.** Its cytotoxicity call is “inactive”.

**Q.** What about the growth inhibition call [3] of the same compound?
**A.** Its growth inhibition call is “inactive”.

**Q.** With `O=C(C[C@@H]1CC[C@@H]2[C@H](COC[C@@H](O)CN2S(=O)(=O)c2ccccc2F)O1)N1CCC(Cc2ccccc2)CC1` as the compound, how does the cytotoxicity call [1] read?
**A.** The cytotoxicity call was “inactive”.

**Q.** And the cytotoxicity call [2]?
**A.** Its cytotoxicity call is “inactive”.

**Q.** What about the growth inhibition call [3] of the same compound?
**A.** The growth inhibition call was “inactive”.

**Q.** What does the source list for `C[C@H](CO)N1C[C@H](C)[C@@H](CN(C)S(=O)(=O)c2ccc(Cl)cc2)OCCCC[C@H](C)Oc2ccc(NC(=O)Nc3ccc(F)cc3)cc2C1=O`?
**A.** cytotoxicity call [1]: inactive; cytotoxicity call [2]: inactive; growth inhibition call [3]: inactive

**Q.** For `C[C@H]1CN([C@@H](C)CO)C(=O)c2cc(NS(=O)(=O)c3cn(C)cn3)ccc2O[C@@H]1CN(C)S(C)(=O)=O`, which cytotoxicity call [1] is on record?
**A.** Its cytotoxicity call is “inactive”.

**Q.** And the cytotoxicity call [2]?
**A.** Its cytotoxicity call is “inactive”.

**Q.** And the growth inhibition call [3]?
**A.** Its growth inhibition call is “inactive”.

**Q.** Which results are given for `CON=C1CN(c2nc3c(cc2F)c(=O)c(C(=O)O)cn3C2CC2)CC1CN.CS(=O)(=O)O` (stereo not given)?
**A.** cytotoxicity call [1]: inactive; cytotoxicity call [2]: inactive; growth inhibition call [3]: active

**Q.** How did the cytotoxicity call [1] turn out when `CCS(=O)(=O)N1CC[C@]2(CC1)CN([C@H](CO)c1c2c2ccc(cc2n1C)OC)C(=O)c1ccc(cc1)F` was run?
**A.** Its cytotoxicity call is “inactive”.

**Q.** And the cytotoxicity call [2]?
**A.** The cytotoxicity call was “inactive”.

**Q.** What about the growth inhibition call [3] of the same compound?
**A.** Its growth inhibition call is “inactive”.

**Q.** What does the source list for `C[C@H]1CN([C@@H](C)CO)C(=O)CCCn2nncc2CO[C@@H]1CN(C)S(=O)(=O)c1ccc(Oc2ccccc2)cc1`?
**A.** cytotoxicity call [1]: inactive; cytotoxicity call [2]: inactive; growth inhibition call [3]: inactive

**Q.** Which results are given for `Cc1ccc(Nc2ncc3c(n2)N(C)C(=O)N(c2cc(NC(=O)c4cccc(C(F)(F)F)c4)ccc2C)C3)cn1`?
**A.** cytotoxicity call [1]: active; cytotoxicity call [2]: active; growth inhibition call [3]: inactive

**Q.** Which results are given for `C[C@H]1CN([C@@H](C)CO)C(=O)c2cc(NS(C)(=O)=O)ccc2O[C@@H]1CN(C)Cc1ccc(C(=O)O)cc1`?
**A.** cytotoxicity call [1]: inactive; cytotoxicity call [2]: inactive; growth inhibition call [3]: inactive

**Q.** For `C[C@@H]1CN([C@H](C)CO)C(=O)c2cc(NS(C)(=O)=O)ccc2O[C@@H](C)CCCCO[C@@H]1CN(C)S(=O)(=O)c1cn(C)cn1`, which cytotoxicity call [1] is on record?
**A.** The cytotoxicity call was “inactive”.

**Q.** What about the cytotoxicity call [2] of the same compound?
**A.** Its cytotoxicity call is “inactive”.

**Q.** What about the growth inhibition call [3] of the same compound?
**A.** Its growth inhibition call is “inactive”.

**Q.** With `C[C@@H]1CN([C@H](C)CO)C(=O)c2cccc(NS(C)(=O)=O)c2O[C@@H]1CN(C)Cc1ccc(C(=O)Nc2ccccc2N)cc1` as the compound, how does the cytotoxicity call [1] read?
**A.** The cytotoxicity call was “inactive”.

**Q.** And the cytotoxicity call [2]?
**A.** The cytotoxicity call was “inactive”.

**Q.** And the growth inhibition call [3]?
**A.** The growth inhibition call was “inactive”.

**Q.** Which cytotoxicity call [1] does the source give for `C[C@H](CO)N1C[C@H](C)[C@@H](CN(C)Cc2ccc(C(=O)O)cc2)Oc2ccc(NS(=O)(=O)c3cn(C)cn3)cc2CC1=O` here?
**A.** Its cytotoxicity call is “inactive”.

**Q.** What about the cytotoxicity call [2] of the same compound?
**A.** The cytotoxicity call was “inactive”.

**Q.** What about the growth inhibition call [3] of the same compound?
**A.** The growth inhibition call was “inactive”.

**Q.** For `COCC(=O)N1C[C@@H](C)[C@@H](OC)CN(C)C(=O)c2cc(NC(=O)c3ccc(F)cc3)ccc2OC[C@H]1C`, which cytotoxicity call [1] is on record?
**A.** The cytotoxicity call was “inactive”.

**Q.** What about the cytotoxicity call [2] of the same compound?
**A.** Its cytotoxicity call is “inactive”.

**Q.** And the growth inhibition call [3]?
**A.** The growth inhibition call was “inactive”.

**Q.** Which results are given for `c1csc([C@@H]2CNCCN2)c1`?
**A.** cytotoxicity call [1]: inactive; cytotoxicity call [2]: inactive; growth inhibition call [3]: inactive

**Q.** With `C[C@@H]1CN([C@@H](C)CO)C(=O)c2cc(NC(=O)Cc3ccccc3)ccc2O[C@@H]1CN(C)S(=O)(=O)c1cn(C)cn1` as the compound, how does the cytotoxicity call [1] read?
**A.** The cytotoxicity call was “inactive”.

**Q.** And the cytotoxicity call [2]?
**A.** Its cytotoxicity call is “inactive”.

**Q.** And the growth inhibition call [3]?
**A.** Its growth inhibition call is “inactive”.
